Screen size: about 320,000 compounds; about 200 (0.062%) were called active. Inconclusive means that the source gave no clear call. Such entries were picked first, then a sample of the others. The call rests on the fitted dose curve; in most records, active means well fitted activation curve with a large enough effect; inconclusive means small, poorly fitted or top-dose-only effect; inactive means no such curve, though single readings can be large or run the other way. No potency is given beside an inconclusive call; the fits are too rough.
Experiment: qHTS assay for re-activators of p53 using a Luc reporter; further: nearly all actives have a fitted effect of over 45% in size
Conditions: H1299 p53-A138V BP100-luciferase reporter, luminescence, 24 h; series mostly up to 92.2 µM
In short: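 H1299 (p53-null), stable ts p53-A138V + BP100-Luc; 1000 cells/well, Opti-MEM/10% FBS; cpd 4 pt, 1:5; 24 h, 37 deg C, 5% CO2; detection reagent 10 min RT; luminescence.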
Potency means the concentration at half of the fitted maximal effect; tags describe the fitted curve by direction and shape.

Row | SMILES | Potency
1 | COc1ccccc1C(=O)n1nc(-c2ccccc2)nc1NCc1ccco1 | inconclusive [activator, partial curve, poor fit]
2 | CC1=CCC(/C=N\Nc2nnc3c(n2)[nH]c2ccccc23)CC1 (centres undefined) | inconclusive [activator, full curve, poor fit]
3 | O=c1cc(N2CCCCC2)c(-c2ccccc2)nn1Cc1ccc(F)cc1 | inactive
4 | Cc1ccc(Cl)c2c(N=Nc3ccccc3)c(O)[nH]c12 | inactive
5 | CCOc1cc(C2C(C#N)=C(N)OC(C)=C2C(C)=O)c(Br)c(Br)c1OC(C)C (centres undefined) | inconclusive [activator, partial curve, poor fit]
6 | Cc1ccc(OCc2cc(C(=O)N(C)CCc3ccccn3)no2)cc1C | inconclusive [activator, partial curve]
7 | CCNC(=O)CSc1nc(-c2ccccc2)cs1 | inactive
8 | CC(=O)c1cnc2c(-c3ccc(Cl)cc3)cnn2c1C | inconclusive [activator, partial curve, poor fit]
9 | Cc1nc(-c2ccc(Cl)cc2)sc1C(=O)O | inconclusive [activator, partial curve, poor fit]
10 | CCOc1ccc(Cc2n[nH]c(=S)n2Cc2ccccc2)cc1 | inactive
11 | O=C(/C=C/Nc1ccc(F)c(Cl)c1)c1ccccc1 | inconclusive [activator, partial curve, poor fit]
12 | O=C(N/N=C/c1ccc(OCC(=O)N2CCOCC2)cc1)c1ccccc1Cl | inactive
13 | O=S(=O)(CC(O)CS(=O)(=O)c1ccc(Cl)cc1)c1ccccc1 (centres undefined) | inactive
14 | CC1CCCCC1NC(=O)c1ccc2c(c1)OCCO2 (centres undefined) | inconclusive [activator, partial curve, poor fit]
15 | COc1ccc(-c2nc3ccccn3c2C=O)cc1 | inconclusive [activator, partial curve, poor fit]
16 | COc1ccc(NC(=O)N2CCN(c3cccc(C(F)(F)F)c3)CC2)cc1 | inactive
17 | COc1ccc(-c2cnnc(N/N=C/c3ccc(O)c(O)c3)n2)cc1 | inconclusive [activator, partial curve, poor fit]
18 | Cn1c(SCC(=O)N/N=C/c2ccc([N+](=O)[O-])s2)nnc1-c1ccccc1 | inactive
19 | CCC(NC(=O)c1[nH]c(C)c(C(C)=O)c1C)c1ccc(Br)cc1 (centres undefined) | inactive
20 | CN1CCN(C(=O)c2cccc(NS(=O)(=O)c3ccc(Br)cc3)c2)CC1 | inactive
21 | C1CCN(c2nc(N3CCCC3)nc(N3CCNCC3)n2)C1 | inconclusive [activator, full curve, poor fit]
22 | COc1ccc(C)cc1NC(=O)NNC(=O)C(C)Oc1ccc(F)cc1Cl (centres undefined) | inconclusive [activator, partial curve, poor fit]
23 | O=C(Cc1ccc(Cl)cc1)c1ccc(O)cc1 | inconclusive [activator, partial curve, poor fit]

Row | SMILES | Potency
24 | COc1ccc(OC)c(CCNC(=O)C(=O)Nc2ccc3nc4n(c(=O)c3c2)CCCCC4)c1 | inactive
25 | COc1ccc(CN(C(=O)CSc2nnc(-c3c[nH]c4ccccc34)o2)c2ccc(F)cc2)cc1OC | inconclusive [activator, partial curve, poor fit]
26 | O=C(COC(=O)c1cccs1)NC1CCCC1 | inconclusive [activator, partial curve, poor fit]
27 | Cn1cc(Cl)c(C(=O)NNC(=S)NC2CCCCC2)n1 | inconclusive [activator, partial curve, poor fit]
28 | O=C(Nc1ccccc1)c1cc2ccccc2[nH]1 | inconclusive [activator, partial curve, poor fit]
29 | O=C(CNC(=O)c1cccs1)Nc1ccc(N2CCOCC2)cc1 | inconclusive [activator, single point]
30 | Cc1nc2ccccc2c(=O)n1/N=C/c1ccc2ccccc2c1O | inactive
31 | Cc1ccc(C(=O)c2c3ccc([N+](=O)[O-])cc3[n+]([O-])n2CCCN)cc1 | inconclusive [activator, partial curve, poor fit]
32 | O=C1CC(c2ccco2)CC(O)=C1C=Nc1cc(Cl)ccc1O (centres undefined) | inactive
33 | CCOc1ccc(Nc2ncnc3c2cnn3C)cc1 | inconclusive [activator, partial curve, poor fit]
34 | CCc1nc(C)cn1S(=O)(=O)c1cc([N+](=O)[O-])ccc1Cl | inconclusive [activator, partial curve, poor fit]
35 | [O-][n+]1c2ccccc2c2n1CCN=C2c1ccc(Cl)cc1 | inconclusive [activator, full curve, poor fit]
36 | COc1cccc(C2C(C(C)=O)=C(O)C(=O)N2CCc2c[nH]c3ccccc23)c1 (centres undefined) | inconclusive [activator, partial curve, poor fit]
37 | CC(=O)c1cnc2cc(-c3ccc(C)cc3)nn2c1C | inconclusive [activator, full curve, poor fit]
38 | O=C(NCC1CCCCC1)c1cc2ccccc2cc1O | inconclusive [activator, full curve, poor fit]
39 | CCn1c(CNc2ccc(F)cc2)nnc1SCC(=O)Nc1ccc(OC)cc1OC | inconclusive [activator, single point]
40 | COCc1cc(=O)n2c(-c3ccc(C)cc3)n[nH]c2n1 | inconclusive [activator, full curve, poor fit]
41 | COc1ccccc1-c1cc(C(=O)N2CCOCC2)no1 | inconclusive [activator, full curve, poor fit]
42 | Cc1ccc(NC(=O)Cn2nnc3ccccc32)cc1 | inconclusive [activator, partial curve, poor fit]
43 | CC1(C)Oc2ccc(NC(=O)C3COc4ccccc4O3)cc2O1 (centres undefined) | inconclusive [activator, partial curve, poor fit]
44 | COc1ccc(-c2cc(C(F)F)n3ncc(C(=O)N4CCc5ccccc5C4)c3n2)cc1 | inactive
45 | Cc1ccsc1C1Nc2ccccc2-c2nc3ccccc3n21 (centres undefined) | inconclusive [activator, partial curve, poor fit]
46 | Cc1onc(-c2c(Cl)cccc2Cl)c1C(=O)NC1C(=O)N2C1SC(C)(C)C2C(=O)O (centres undefined) | inactive

Row | SMILES | Potency
47 | NC(=S)NN=C1c2cc(OCCN3CCOCC3)ccc2-c2ccc(OCCN3CCOCC3)cc21 | inactive
48 | Clc1cccc(Cl)c1COn1nnc2ccccc21 | inconclusive [activator, full curve, poor fit]
49 | N#CC1=C2C=CC=CN2CC1=O | inconclusive [activator, partial curve, poor fit]
50 | C=CCSc1nc2sc(-c3ccccc3)cc2c(=O)n1N | inconclusive [activator, full curve, poor fit]
51 | CN(CC(O)COc1ccc2ccccc2c1)C1CCCCC1 (centres undefined) | inactive
52 | Cc1cc(=O)[nH]c2n[nH]c(-c3ccccc3)c12 | inconclusive [activator, partial curve, poor fit]
53 | NC(=O)c1ccsc1NC(=O)COc1ccccc1 | inconclusive [activator, full curve, poor fit]
54 | Cc1ccc(CSCC(=O)Nc2ccccc2C(=O)O)cc1 | inconclusive [activator, partial curve, poor fit]
55 | CC(Sc1nncn1C)C(=O)Nc1ccc(N2CCCCC2)cc1 (centres undefined) | inconclusive [activator, partial curve, poor fit]
56 | C/C(=N\NC(=O)C1COc2ccccc2O1)c1ccc(Cl)s1 (centres undefined) | inactive
57 | c1ccc2c(c1)CCCN2c1nc2ccccc2n2cnnc12 | inconclusive [activator, partial curve, poor fit]
58 | N#CC1=C(N)SC(N)=C(C#N)C1CCc1ccccc1 | inactive
59 | COc1ccc(-c2coc3cc(O)ccc3c2=O)cc1OC | inconclusive [activator, partial curve, poor fit]
60 | CCCCc1ccc(-c2ccc(C)cc2O)nc1 | inconclusive [activator, partial curve, poor fit]
61 | O=C(NN=C1CCCCCCC1)c1ccccn1 | inconclusive [activator, single point]
62 | COc1ccccc1NC(=O)COC(=O)CCn1c(C)csc1=O | inactive
63 | O=C(CSc1nnc(-c2ccccc2Cl)o1)N1CCCC1 | inconclusive [activator, partial curve, poor fit]
64 | COc1ccc(CNC(=S)Nc2ccc(F)c(Cl)c2)cc1 | inactive
65 | COc1cccc(NC(=O)CSc2ccccn2)c1 | inconclusive [activator, partial curve, poor fit]
66 | Cc1noc(NS(=O)(=O)c2ccc(NC(=O)c3cc4ccccc4o3)cc2)c1C | inactive
67 | O=C(/C(=C/O)N=Nc1ccccc1Cl)c1ccccc1 | inconclusive [activator, partial curve, poor fit]
68 | NC(=O)c1cc2c3ccccc3ccn2c1-c1ccccc1 | inconclusive [activator, full curve, poor fit]
69 | CCn1c(C)nc2cc(C(=O)NNC(=O)c3ccc(C)cc3)ccc21 | inconclusive [activator, full curve, poor fit]
